Assay results taken from the antibiotic and cytotoxicity screens of Wong et al. (2023).
The other results are listed elsewhere or left out.

Test system: HSkMC (human skeletal muscle cells)
Assay: cytotoxicity call (relative viability < 0.9)
Conditions: 10 µM

SMILES	cytotoxicity call
COc1ccc(CN(C)C[C@@H]2OCCCC[C@@H](C)Oc3ccc(NC(=O)c4ccccc4)cc3C(=O)N([C@H](C)CO)C[C@@H]2C)cc1	inactive
Cc1noc(C)c1S(=O)(=O)Nc1cccc2c1O[C@@H](CN(C)Cc1ccncc1)[C@@H](C)CN([C@H](C)CO)C2=O	inactive
Cc1noc(C)c1S(=O)(=O)N(C)C[C@@H]1OCCCC[C@H](C)Oc2ccc(NS(=O)(=O)c3cn(C)cn3)cc2C(=O)N([C@@H](C)CO)C[C@H]1C	inactive
C[C@@H]1CN([C@@H](C)CO)C(=O)Cc2cc(NC(=O)CCC(F)(F)F)ccc2O[C@H]1CN(C)Cc1ccc(C(=O)Nc2ccccc2N)cc1	inactive
CC(C)Cn1c(=O)[nH]c2c1c(=O)n(C)c(=O)n2C	inactive
CO[C@@H]1CN(C)C(=O)c2ccc(NC(=O)c3ccccc3)cc2OC[C@@H](C)N(C(=O)CN(C)C)C[C@H]1C	inactive
C[C@@H]1CN([C@H](C)CO)C(=O)c2cc(NC(=O)CCCN(C)C)ccc2O[C@H]1CN(C)S(=O)(=O)c1ccc(F)cc1	inactive
Cc1noc(C)c1S(=O)(=O)N(C)C[C@@H]1Oc2ccc(NS(=O)(=O)c3ccccc3)cc2CC(=O)N([C@@H](C)CO)C[C@H]1C	inactive
C[C@H]1CN([C@@H](C)CO)C(=O)Cc2cc(NC(=O)Nc3cccc4ccccc34)ccc2O[C@H]1CN(C)S(=O)(=O)c1ccc(Cl)cc1	inactive
Cc1noc(C)c1NC(=O)Nc1cccc2c1O[C@H](CN(C)C(=O)Nc1ccc(C(F)(F)F)cc1)[C@@H](C)CN([C@H](C)CO)C2=O	inactive
CO[C@H]1CN(C)C(=O)c2cc(NC(=O)Nc3cccc(Cl)c3)ccc2OC[C@H](C)N(C(=O)Nc2c(C)noc2C)C[C@@H]1C	inactive
C[C@@H]1CN([C@@H](C)CO)C(=O)c2cc(NC(=O)Nc3ccc4c(c3)OCO4)ccc2O[C@@H]1CN(C)Cc1ccc(Oc2ccccc2)cc1	inactive

Test system: HepG2
Assay: cytotoxicity call (relative viability < 0.9)
Conditions: 10 µM

SMILES	cytotoxicity call
COc1ccc(NC(=O)N(C)C[C@@H]2Oc3c(NC(=O)Nc4ccc(C(F)(F)F)cc4)cccc3C(=O)N([C@H](C)CO)C[C@H]2C)cc1	inactive
CC(=O)N[C@H]1CSSC[C@@H](C(N)=O)NC(=O)[C@H](C(C)C)NC(=O)[C@H](C)NC(=O)[C@H](Cc2cnc[nH]2)NC1=O	inactive
C[C@H](CO)N1C[C@H](C)[C@H](CN(C)Cc2ccc(C(F)(F)F)cc2)OCCCC[C@H](C)Oc2ccc(NC(=O)C3CCCCC3)cc2C1=O	inactive
CC(C)NC(=O)N(C)C[C@H]1Oc2ccc(NC(=O)NC3CCCCC3)cc2C(=O)N([C@H](C)CO)C[C@H]1C	inactive
COc1ccc(NC(=O)N2C[C@@H](O)COC[C@@H]3O[C@@H](CC(=O)NC4Cc5ccccc5C4)CC[C@H]32)cc1	inactive
C[C@@H]1CCCCO[C@H](CN(C)C(=O)c2ccccc2)[C@H](C)CN([C@@H](C)CO)C(=O)c2cc(NC(=O)Nc3ccccc3)ccc2O1	inactive
COc1ccc(S(=O)(=O)Nc2ccc3c(c2)C(=O)N([C@@H](C)CO)C[C@@H](C)[C@H](CN(C)C(=O)NC(C)C)O3)cc1	inactive
C[C@@H]1CN([C@H](C)CO)C(=O)Cc2cc(NC(=O)CCCCCC(=O)Nc3ccccc3N)ccc2O[C@H]1CN(C)CC1CCCCC1	inactive
Cc1ccc2ncc(-c3ccc4cc(C)ccc4n3)cc2c1	inactive
CN(C)CC(=O)N[C@H]1C=C[C@H](CC(=O)O)O[C@H]1CO	inactive
C[C@H]1CCCCO[C@H](CN(C)Cc2ccc3c(c2)OCO3)[C@@H](C)CN([C@@H](C)CO)C(=O)c2cc(NC(=O)Cc3ccccc3)ccc2O1	inactive
C[C@@H]1CN([C@@H](C)CO)C(=O)c2cccc(NS(=O)(=O)c3cn(C)cn3)c2O[C@@H]1CN(C)S(=O)(=O)c1ccc(F)cc1	inactive
CO[C@@H]1CN(C)C(=O)c2ccc(NC(=O)C3CC3)cc2OC[C@H](C)N(C(=O)Cc2ccccn2)C[C@H]1C	inactive
CCCNC(=O)C[C@@H]1CC[C@@H]2[C@H](COC[C@H](O)CN2S(=O)(=O)c2ccc(Oc3ccccc3)cc2)O1	inactive
C[C@H]1CN([C@@H](C)CO)C(=O)c2cc(NC(=O)Nc3ccccc3)ccc2O[C@@H]1CN(C)C(=O)Nc1cccc2ccccc12	inactive
C[C@@H]1CN([C@H](C)CO)C(=O)c2cccc(NS(=O)(=O)c3ccc(Cl)cc3)c2O[C@H]1CN(C)Cc1ccc(C(F)(F)F)cc1	inactive
